The supplement of paper PMC10369915
The list shows a part of the results. Rule as the data show it: active = 3.2 or more and inactive = the rest. Only a few entries rise above the background.

B1: RBM3_HUMAN_155_YA (peptide)
chain: GGNARDNYDNGGGGG
B2: RBM39_HUMAN_95 (peptide)
chain: DRRFRGRYRSPYSGP
B3: RBP2_HUMAN_2666 (peptide)
chain: CYKNRPDYVSEEEED
B4: RD23B_HUMAN_202 (peptide)
chain: TEIMSMGYEREQVIA
B5: REPS1_HUMAN_288_YA (peptide)
chain: ITDEQRQYAVNQFKT
B6: RERE_HUMAN_1259 (peptide)
chain: ALRTLSEYARPHVMS
B7: RET_HUMAN_1015 (peptide)
chain: MMVKRRDYLDLAAST
B8: RET_HUMAN_1090 (peptide)
chain: TNTGFPRYPNDSVYA
B9: AT1A1_HUMAN_10 (peptide)
chain: KGVGRDKYEPAAVSE
B10: RET_HUMAN_900 (peptide)
chain: FGLSRDVYEEDSYVK
B11: RET_HUMAN_905 (peptide)
chain: DVYEEDSYVKRSQGR
B12: RFC1_HUMAN_67 (peptide)
chain: SKKKRIIYDSDSESE
B13: RGS16_HUMAN_168 (peptide)
chain: TLMEKDSYPRFLKSP
B14: RHG21_HUMAN_881 (peptide)
chain: KTERSKSYDEGLDDY
B15: AT1A1_HUMAN_542 (peptide)
chain: KDAFQNAYLELGGLG
B16: RIOK2_HUMAN_445 (peptide)
chain: VPAGSDEYEDECPHL
B17: RIPK1_HUMAN_384 (peptide)
chain: KLQDEANYHLYGSRM
B18: RIPK2_HUMAN_381 (peptide)
chain: SRKAQDCYFMKLHHC

molecular target: SHP2 C-SH2 domain E139D; test: enrichment score (SH2-bound / input frequency) (ratio); bacterial display of known human phosphotyrosine sites (pTyr-Var adds point mutants) read by sequencing; higher = stronger binding; tyrosines were phosphorylated by kinases first; details: peptide library: Human pTyr
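Also: displayed peptides selected on beads carrying the immobilized SH2 domain, with library peptides lacking any tyrosine serving as negative controls.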

Enrichment score, inactive:
B1 0.747
B2 0.743
B3 1.43
B4 0.513
B5 0.697
B6 1.24
B7 0.808
B8 0.589
B9 0.785
B10 0.544
B11 0.764
B12 0.79
B13 0.568
B14 1.17
B15 0.607
B16 1.1
B17 0.979
B18 1.84

molecular target: SHP2 C-SH2 domain wild-type; test: as above; details: peptide library: Human pTyr

Enrichment score, inactive:
B1 0.614
B2 0.459
B3 1.58
B4 0.511
B5 0.791
B6 1.03
B7 0.666
B8 0.56
B9 0.922
B10 0.528
B11 0.59
B12 0.665
B13 0.749
B14 0.798
B15 0.556
B16 0.771
B17 0.709
B18 1.94

molecular target: SHP2 N-SH2 domain L43F; test: as above; details: peptide library: Human pTyr

Enrichment score, inactive:
B1 0.662
B2 0.703
B3 1.52
B4 0.809
B5 0.531
B6 1.2
B7 0.786
B8 0.662
B9 0.869
B10 0.737
B11 0.698
B12 0.842
B13 0.726
B14 0.886
B15 0.651
B16 1
B17 0.884
B18 1.74

molecular target: SHP2 N-SH2 domain T42A; test: as above; details: peptide library: Human pTyr

Enrichment score, inactive:
B1 0.569
B2 0.599
B3 1.21
B4 0.555
B5 0.533
B6 1.14
B7 0.764
B8 0.604
B9 0.806
B10 0.476
B11 0.657
B12 0.572
B13 0.796
B14 0.935
B15 0.701
B16 0.988
B17 0.663
B18 1.92

molecular target: SHP2 N-SH2 domain T52S; test: as above; details: peptide library: Human pTyr

Enrichment score, inactive:
B1 0.671
B2 0.662
B3 1.4
B4 0.516
B5 0.694
B6 1.05
B7 1.13
B8 0.686
B9 0.853
B10 0.735
B11 0.707
B12 0.551
B13 0.698
B14 1.29
B15 0.638
B16 1.02
B17 0.746
B18 2.1

molecular target: SHP2 N-SH2 domain wild-type; test: as above; details: peptide library: Human pTyr

Enrichment score, inactive:
B1 0.625
B2 0.652
B3 1.42
B4 0.547
B5 0.703
B6 1.44
B7 0.707
B8 0.651
B9 0.973
B10 0.578
B11 0.734
B12 0.641
B13 0.9
B14 1.28
B15 0.728
B16 1.06
B17 0.875
B18 2.86
